T1: PRYSPRY domain of human TRIM21 with N-terminal 6xHis tag (human)
T1 construct: Expressed in E. coli; also called hTRIM21; human TRIM21.PRYSPRY
T1 chain: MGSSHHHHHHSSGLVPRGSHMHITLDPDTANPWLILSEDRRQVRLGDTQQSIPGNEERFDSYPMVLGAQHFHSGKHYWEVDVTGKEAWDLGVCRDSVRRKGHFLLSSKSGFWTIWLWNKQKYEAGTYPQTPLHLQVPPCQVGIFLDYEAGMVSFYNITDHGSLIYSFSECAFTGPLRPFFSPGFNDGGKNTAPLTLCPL

T2: PRYSPRY domain of mouse TRIM21 with N-terminal 6xHis tag (mouse)
T2 construct: Expressed in E. coli; also called mTRIM21; mouse TRIM21.PRYSPRY
T2 chain: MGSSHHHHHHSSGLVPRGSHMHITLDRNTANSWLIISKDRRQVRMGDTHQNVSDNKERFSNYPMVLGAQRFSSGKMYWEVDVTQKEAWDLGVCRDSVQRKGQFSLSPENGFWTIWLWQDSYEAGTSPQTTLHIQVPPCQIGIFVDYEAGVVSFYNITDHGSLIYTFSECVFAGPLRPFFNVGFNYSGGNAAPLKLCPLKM

B1: MRAH-G1d/MRAL-KT0 E345M (antibody, human IgG1, kappa)
heavy: QVQLQESGPGLVRPSQTLSLTCTVSGYSITSDHAWSWVRQPPGRGLEWIGYISYSGITTYNPSLKSRVTMLRDTSKNQFSLRLSSVTAADTAVYYCARSLARTTAMDYWGQGSLVTVSS[human IgG1 constant region with E345M (EU numbers) omitted here]
light: DIQMTQSPSSLSASVGDRVTITCRASQDISSYLNWYQQKPGKAPKLLIYYTSRLHSGVPSRFSGSGSGTDFTFTISSLQPEDIATYYCQQGNTLPYTFGQGTKVEIKRTVAAPSVFIFPPSDEQLKSGTASVVCLLNNFYPREAKVQWKVDNALQSGNSQESVTEQDSKDSTYSLSSTLTLSKADYEKHKVYACEVTHQGLSSPVTKSFNRGEC
B2: MRAH-G1d/MRAL-KT0 E345V (antibody, human IgG1, kappa)
heavy: QVQLQESGPGLVRPSQTLSLTCTVSGYSITSDHAWSWVRQPPGRGLEWIGYISYSGITTYNPSLKSRVTMLRDTSKNQFSLRLSSVTAADTAVYYCARSLARTTAMDYWGQGSLVTVSS[human IgG1 constant region with E345V (EU numbers) omitted here]
light: DIQMTQSPSSLSASVGDRVTITCRASQDISSYLNWYQQKPGKAPKLLIYYTSRLHSGVPSRFSGSGSGTDFTFTISSLQPEDIATYYCQQGNTLPYTFGQGTKVEIKRTVAAPSVFIFPPSDEQLKSGTASVVCLLNNFYPREAKVQWKVDNALQSGNSQESVTEQDSKDSTYSLSSTLTLSKADYEKHKVYACEVTHQGLSSPVTKSFNRGEC
B3: MRAH-G1d/MRAL-KT0 E345Q (antibody, human IgG1, kappa)
heavy: QVQLQESGPGLVRPSQTLSLTCTVSGYSITSDHAWSWVRQPPGRGLEWIGYISYSGITTYNPSLKSRVTMLRDTSKNQFSLRLSSVTAADTAVYYCARSLARTTAMDYWGQGSLVTVSS[human IgG1 constant region with E345Q (EU numbers) omitted here]
light: DIQMTQSPSSLSASVGDRVTITCRASQDISSYLNWYQQKPGKAPKLLIYYTSRLHSGVPSRFSGSGSGTDFTFTISSLQPEDIATYYCQQGNTLPYTFGQGTKVEIKRTVAAPSVFIFPPSDEQLKSGTASVVCLLNNFYPREAKVQWKVDNALQSGNSQESVTEQDSKDSTYSLSSTLTLSKADYEKHKVYACEVTHQGLSSPVTKSFNRGEC
B4: MRAH-G1d/MRAL-KT0 E345P (antibody, human IgG1, kappa)
heavy: QVQLQESGPGLVRPSQTLSLTCTVSGYSITSDHAWSWVRQPPGRGLEWIGYISYSGITTYNPSLKSRVTMLRDTSKNQFSLRLSSVTAADTAVYYCARSLARTTAMDYWGQGSLVTVSS[human IgG1 constant region with E345P (EU numbers) omitted here]
light: DIQMTQSPSSLSASVGDRVTITCRASQDISSYLNWYQQKPGKAPKLLIYYTSRLHSGVPSRFSGSGSGTDFTFTISSLQPEDIATYYCQQGNTLPYTFGQGTKVEIKRTVAAPSVFIFPPSDEQLKSGTASVVCLLNNFYPREAKVQWKVDNALQSGNSQESVTEQDSKDSTYSLSSTLTLSKADYEKHKVYACEVTHQGLSSPVTKSFNRGEC
B5: MRAH-G1d/MRAL-KT0 E345R (antibody, human IgG1, kappa)
heavy: QVQLQESGPGLVRPSQTLSLTCTVSGYSITSDHAWSWVRQPPGRGLEWIGYISYSGITTYNPSLKSRVTMLRDTSKNQFSLRLSSVTAADTAVYYCARSLARTTAMDYWGQGSLVTVSS[human IgG1 constant region with E345R (EU numbers) omitted here]
light: DIQMTQSPSSLSASVGDRVTITCRASQDISSYLNWYQQKPGKAPKLLIYYTSRLHSGVPSRFSGSGSGTDFTFTISSLQPEDIATYYCQQGNTLPYTFGQGTKVEIKRTVAAPSVFIFPPSDEQLKSGTASVVCLLNNFYPREAKVQWKVDNALQSGNSQESVTEQDSKDSTYSLSSTLTLSKADYEKHKVYACEVTHQGLSSPVTKSFNRGEC
B6: MRAH-G1d/MRAL-KT0 E345S (antibody, human IgG1, kappa)
heavy: QVQLQESGPGLVRPSQTLSLTCTVSGYSITSDHAWSWVRQPPGRGLEWIGYISYSGITTYNPSLKSRVTMLRDTSKNQFSLRLSSVTAADTAVYYCARSLARTTAMDYWGQGSLVTVSS[human IgG1 constant region with E345S (EU numbers) omitted here]
light: DIQMTQSPSSLSASVGDRVTITCRASQDISSYLNWYQQKPGKAPKLLIYYTSRLHSGVPSRFSGSGSGTDFTFTISSLQPEDIATYYCQQGNTLPYTFGQGTKVEIKRTVAAPSVFIFPPSDEQLKSGTASVVCLLNNFYPREAKVQWKVDNALQSGNSQESVTEQDSKDSTYSLSSTLTLSKADYEKHKVYACEVTHQGLSSPVTKSFNRGEC
B7: MRAH-G1d/MRAL-KT0 E345T (antibody, human IgG1, kappa)
heavy: QVQLQESGPGLVRPSQTLSLTCTVSGYSITSDHAWSWVRQPPGRGLEWIGYISYSGITTYNPSLKSRVTMLRDTSKNQFSLRLSSVTAADTAVYYCARSLARTTAMDYWGQGSLVTVSS[human IgG1 constant region with E345T (EU numbers) omitted here]
light: DIQMTQSPSSLSASVGDRVTITCRASQDISSYLNWYQQKPGKAPKLLIYYTSRLHSGVPSRFSGSGSGTDFTFTISSLQPEDIATYYCQQGNTLPYTFGQGTKVEIKRTVAAPSVFIFPPSDEQLKSGTASVVCLLNNFYPREAKVQWKVDNALQSGNSQESVTEQDSKDSTYSLSSTLTLSKADYEKHKVYACEVTHQGLSSPVTKSFNRGEC
B8: MRAH-G1d/MRAL-KT0 E345N (antibody, human IgG1, kappa)
heavy: QVQLQESGPGLVRPSQTLSLTCTVSGYSITSDHAWSWVRQPPGRGLEWIGYISYSGITTYNPSLKSRVTMLRDTSKNQFSLRLSSVTAADTAVYYCARSLARTTAMDYWGQGSLVTVSS[human IgG1 constant region with E345N (EU numbers) omitted here]
light: DIQMTQSPSSLSASVGDRVTITCRASQDISSYLNWYQQKPGKAPKLLIYYTSRLHSGVPSRFSGSGSGTDFTFTISSLQPEDIATYYCQQGNTLPYTFGQGTKVEIKRTVAAPSVFIFPPSDEQLKSGTASVVCLLNNFYPREAKVQWKVDNALQSGNSQESVTEQDSKDSTYSLSSTLTLSKADYEKHKVYACEVTHQGLSSPVTKSFNRGEC

Legend:
Assay in all cases: SPR, Protein L capture
[1] = molecular target: T1, PRYSPRY domain of human TRIM21 with …
[2] = molecular target: T2, PRYSPRY domain of mouse TRIM21 with …
human FcRn = molecular target: T3, human FcRn (human, UniProt P55899 partial chain; P61769 partial chain, limits assumed)
T3 construct: also called hFcRn

Chain of human FcRn (P55899 24-290 limits assumed, form in doubt, chain 1 of 2): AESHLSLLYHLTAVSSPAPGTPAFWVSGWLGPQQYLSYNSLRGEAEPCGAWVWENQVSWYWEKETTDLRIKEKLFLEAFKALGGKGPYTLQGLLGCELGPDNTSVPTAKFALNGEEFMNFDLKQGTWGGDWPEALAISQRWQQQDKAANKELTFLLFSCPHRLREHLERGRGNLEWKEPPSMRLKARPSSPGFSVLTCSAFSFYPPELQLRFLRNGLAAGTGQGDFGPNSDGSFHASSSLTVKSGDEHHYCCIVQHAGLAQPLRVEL
Chain of human FcRn (P61769 21-119 limits assumed, form in doubt, chain 2 of 2, further chain): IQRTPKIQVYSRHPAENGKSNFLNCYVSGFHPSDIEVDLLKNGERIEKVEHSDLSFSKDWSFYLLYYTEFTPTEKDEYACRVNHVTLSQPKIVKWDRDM

Binder | hTRIM21 binding level ratio (variant/control antibody) [1] | mTRIM21 binding level ratio (variant/control antibody) [2] | hFcRn binding level ratio (variant/control antibody) (human FcRn)
B1 | 0.638 | 2.74 | 0.13
B2 | 0.422 | 2.33 | 0.92
B3 | 0.657 | 2.92 | 0.29
B4 | 0.53 | 2.41 | 0.88
B5 | 0.073 | 2.37 | 0.76
B6 | 0.989 | 2.88 | 0.9
B7 | 0.887 | 2.85 | 0.91
B8 | 0.665 | 2.76 | 0.79

Reference: patent US20210238308A1 (Chugai, published 2021)
